{"source": "the supplement of paper PMC10126150", "note": "Sequences with one replicate were seen in a single cluster, so their values are uncertain.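 Note: ATP exposure 15 min at 22 °C before imaging.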"}
{"test_system": "ATP", "test": "switch fluorescence ratio, 500 uM ATP over buffer (Cy3 cluster intensity, sum of 5 cycles each) (fold (ratio)); higher = stronger signal-on switching upon ATP binding; sequences stand for … in TCGTCGGCAGCGTCAGATGTGTATAAGAGACAGTTTTTTTTTTTTTTTTTTTTTTTTT…TC", "details": "aptamer strand: ATP DNA aptamer (quencher-CACCTGGGGGAGTATTGCGGAGGAAGG + anchor), 100 nM annealed; ATP concentration: 500 uM; one replicate", "how_it_was_run": "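Cy3-labelled switching-strand clusters on a modified Illumina MiSeq flow-cell were annealed to 100 nM quencher-labelled ATP aptamer, imaged in selection buffer, then imaged after 15 min with 500 uM ATP at 22 °C. Five buffer/ATP cycles ran, with NaOH stripping and re-annealing between them. The fluorescence ratio is summed target-cycle over summed buffer-cycle Cy3 intensity per cluster, averaged per switch-domain sequence. Clusters outside 100-1000 RFU were excluded.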"}
{"sequence": "GAGATTCTTC", "switch fluorescence ratio": 1.05}
{"sequence": "GAGCAAGTAC", "switch fluorescence ratio": 2}
{"sequence": "GAGCAAGTTA", "switch fluorescence ratio": 1.07}
{"sequence": "GAGCAATGGG", "switch fluorescence ratio": 1.4}
{"sequence": "GAGCACTAAA", "switch fluorescence ratio": 0.988}
{"sequence": "GAGCAGAGCT", "switch fluorescence ratio": 0.982}
{"sequence": "GAGCATCGGC", "switch fluorescence ratio": 1.25}
{"sequence": "GAGCATCGTG", "switch fluorescence ratio": 0.971}
{"sequence": "GAGCATGCGT", "switch fluorescence ratio": 0.989}
{"sequence": "GAGCCAAGCC", "switch fluorescence ratio": 0.979}
{"sequence": "GAGCCAATGG", "switch fluorescence ratio": 1.09}
{"sequence": "GAGCCAGTGA", "switch fluorescence ratio": 1}
{"sequence": "GAGCCGGAGG", "switch fluorescence ratio": 1.03}
{"sequence": "GAGCCTAACC", "switch fluorescence ratio": 1.03}
{"sequence": "GAGCCTATCT", "switch fluorescence ratio": 0.989}
{"sequence": "GAGCCTTAGT", "switch fluorescence ratio": 0.965}
{"sequence": "GAGCGACGTT", "switch fluorescence ratio": 0.935}
{"sequence": "GAGCGAGTGA", "switch fluorescence ratio": 1.02}
{"sequence": "GAGCGATCCT", "switch fluorescence ratio": 1.15}
{"sequence": "GAGCGCTATA", "switch fluorescence ratio": 1.22}
{"sequence": "GAGCGGAGTT", "switch fluorescence ratio": 0.994}
{"sequence": "GAGCGGGTTC", "switch fluorescence ratio": 1}
{"sequence": "GAGCGTGCCT", "switch fluorescence ratio": 1.02}
{"sequence": "GAGCTAACCC", "switch fluorescence ratio": 1.02}
{"sequence": "GAGCTCCCA", "switch fluorescence ratio": 1.07}
{"sequence": "GAGCTCTATC", "switch fluorescence ratio": 0.974}
{"sequence": "GAGCTGCTCA", "switch fluorescence ratio": 0.975}
{"sequence": "GAGCTGGGAT", "switch fluorescence ratio": 1.01}
{"sequence": "GAGGAAAGTT", "switch fluorescence ratio": 1.02}
{"sequence": "GAGGAAATAG", "switch fluorescence ratio": 1.33}
{"sequence": "GAGGACTATA", "switch fluorescence ratio": 1.03}
{"sequence": "GAGGAGCGGA", "switch fluorescence ratio": 1.07}
{"sequence": "GAGGAGGAGT", "switch fluorescence ratio": 0.982}
{"sequence": "GAGGAGGCTG", "switch fluorescence ratio": 0.948}
{"sequence": "GAGGATGGCT", "switch fluorescence ratio": 0.938}
{"sequence": "GAGGCACCGA", "switch fluorescence ratio": 0.998}
{"sequence": "GAGGCCACGC", "switch fluorescence ratio": 0.975}
{"sequence": "GAGGCGAAAT", "switch fluorescence ratio": 0.988}
{"sequence": "GAGGCGAATC", "switch fluorescence ratio": 1.29}
{"sequence": "GAGGCTTCAG", "switch fluorescence ratio": 0.991}
{"sequence": "GAGGCTTTGG", "switch fluorescence ratio": 1.05}
{"sequence": "GAGGGAGATA", "switch fluorescence ratio": 0.949}
{"sequence": "GAGGGATCCG", "switch fluorescence ratio": 0.962}
{"sequence": "GAGGGATGTC", "switch fluorescence ratio": 0.928}
{"sequence": "GAGGGATTGC", "switch fluorescence ratio": 0.954}
{"sequence": "GAGGGCTTGC", "switch fluorescence ratio": 0.997}
{"sequence": "GAGGGGTCAT", "switch fluorescence ratio": 1.02}
{"sequence": "GAGGGTCATG", "switch fluorescence ratio": 1.04}
{"sequence": "GAGGTAGTAG", "switch fluorescence ratio": 0.961}
{"sequence": "GAGGTATAAA", "switch fluorescence ratio": 1.01}
{"sequence": "GAGGTATGA", "switch fluorescence ratio": 1.01}
{"sequence": "GAGGTATGAG", "switch fluorescence ratio": 0.997}
{"sequence": "GAGGTATTCA", "switch fluorescence ratio": 1.02}
{"sequence": "GAGGTCAATT", "switch fluorescence ratio": 1.03}
{"sequence": "GAGGTCAGGA", "switch fluorescence ratio": 1.02}
{"sequence": "GAGGTCTGCT", "switch fluorescence ratio": 1.01}
{"sequence": "GAGGTGGTCT", "switch fluorescence ratio": 0.962}
{"sequence": "GAGGTGTCTC", "switch fluorescence ratio": 0.992}
{"sequence": "GAGGTGTTAT", "switch fluorescence ratio": 1.05}
{"sequence": "GAGGTGTTTC", "switch fluorescence ratio": 1}
{"sequence": "GAGGTTATCT", "switch fluorescence ratio": 1.04}
{"sequence": "GAGGTTGCC", "switch fluorescence ratio": 0.95}
{"sequence": "GAGGTTTCGA", "switch fluorescence ratio": 0.983}
{"sequence": "GAGTACAGC", "switch fluorescence ratio": 1.05}
{"sequence": "GAGTACCTCA", "switch fluorescence ratio": 0.992}
{"sequence": "GAGTACGGAG", "switch fluorescence ratio": 0.999}
{"sequence": "GAGTAGTGGT", "switch fluorescence ratio": 0.978}
{"sequence": "GAGTAGTTGC", "switch fluorescence ratio": 1.06}
{"sequence": "GAGTAGTTGG", "switch fluorescence ratio": 0.904}
{"sequence": "GAGTCCGTGT", "switch fluorescence ratio": 1.01}
{"sequence": "GAGTCCGTTG", "switch fluorescence ratio": 1.09}
{"sequence": "GAGTCGGCAG", "switch fluorescence ratio": 1.04}
{"sequence": "GAGTGACAGG", "switch fluorescence ratio": 1.04}
{"sequence": "GAGTGACGGT", "switch fluorescence ratio": 1.06}
{"sequence": "GAGTGACTCT", "switch fluorescence ratio": 0.993}
{"sequence": "GAGTGCATGT", "switch fluorescence ratio": 0.968}
{"sequence": "GAGTGCTCAC", "switch fluorescence ratio": 1.05}
{"sequence": "GAGTGCTCTC", "switch fluorescence ratio": 0.996}
{"sequence": "GAGTGTCCCT", "switch fluorescence ratio": 0.972}
{"sequence": "GAGTGTGGAA", "switch fluorescence ratio": 1.06}
{"sequence": "GAGTTAAACG", "switch fluorescence ratio": 1.09}
{"sequence": "GAGTTACAGA", "switch fluorescence ratio": 0.973}
{"sequence": "GAGTTACCAT", "switch fluorescence ratio": 1.01}
{"sequence": "GAGTTAGCC", "switch fluorescence ratio": 1.06}
{"sequence": "GAGTTAGTTT", "switch fluorescence ratio": 0.997}
{"sequence": "GAGTTCATTA", "switch fluorescence ratio": 0.981}
{"sequence": "GAGTTCGGTC", "switch fluorescence ratio": 1.05}
{"sequence": "GAGTTCTCCT", "switch fluorescence ratio": 0.997}
{"sequence": "GAGTTCTTTG", "switch fluorescence ratio": 0.958}
{"sequence": "GAGTTCTTTT", "switch fluorescence ratio": 1}
{"sequence": "GAGTTGATG", "switch fluorescence ratio": 0.997}
{"sequence": "GAGTTGTCTG", "switch fluorescence ratio": 1}
{"sequence": "GAGTTTTAGT", "switch fluorescence ratio": 1.04}
{"sequence": "GATAAAATTC", "switch fluorescence ratio": 0.991}
{"sequence": "GATAAAGACT", "switch fluorescence ratio": 0.993}
{"sequence": "GATAAGGGCA", "switch fluorescence ratio": 0.983}
{"sequence": "GATAATCTAA", "switch fluorescence ratio": 0.968}
{"sequence": "GATAATTATT", "switch fluorescence ratio": 0.994}
{"sequence": "GATAATTCAT", "switch fluorescence ratio": 1.07}
{"sequence": "GATAATTCGT", "switch fluorescence ratio": 1.05}
{"sequence": "GATACAAAGT", "switch fluorescence ratio": 1.04}
{"sequence": "GATACTACGA", "switch fluorescence ratio": 1.05}
{"sequence": "GATACTGTGG", "switch fluorescence ratio": 1}
{"sequence": "GATACTGTTT", "switch fluorescence ratio": 0.966}
{"sequence": "GATAGATCAA", "switch fluorescence ratio": 1.03}
{"sequence": "GATAGTACG", "switch fluorescence ratio": 1.04}
{"sequence": "GATAGTGTTA", "switch fluorescence ratio": 0.945}
{"sequence": "GATAGTTGAA", "switch fluorescence ratio": 0.965}
{"sequence": "GATAGTTTCA", "switch fluorescence ratio": 0.982}
{"sequence": "GATATAATTC", "switch fluorescence ratio": 0.996}
{"sequence": "GATATACAGT", "switch fluorescence ratio": 1.04}
{"sequence": "GATATACCGA", "switch fluorescence ratio": 1.11}
{"sequence": "GATATATCAT", "switch fluorescence ratio": 1.03}
{"sequence": "GATATCACAC", "switch fluorescence ratio": 1.04}
{"sequence": "GATATCACTA", "switch fluorescence ratio": 1.01}
{"sequence": "GATATCAGCG", "switch fluorescence ratio": 0.929}
{"sequence": "GATATCAGTC", "switch fluorescence ratio": 1.03}
{"sequence": "GATATCTCTG", "switch fluorescence ratio": 1.03}
{"sequence": "GATATCTGAA", "switch fluorescence ratio": 0.977}
{"sequence": "GATATGGACT", "switch fluorescence ratio": 1}
{"sequence": "GATATGGAGC", "switch fluorescence ratio": 0.976}
{"sequence": "GATATGGTCT", "switch fluorescence ratio": 1}
{"sequence": "GATATGTTAC", "switch fluorescence ratio": 1.05}
{"sequence": "GATATTACGA", "switch fluorescence ratio": 1.01}
{"sequence": "GATATTATGC", "switch fluorescence ratio": 0.988}
{"sequence": "GATCAAACAG", "switch fluorescence ratio": 0.973}
{"sequence": "GATCACAGTT", "switch fluorescence ratio": 0.985}
{"sequence": "GATCATAAGC", "switch fluorescence ratio": 1.02}
{"sequence": "GATCATCTCA", "switch fluorescence ratio": 0.968}
{"sequence": "GATCATTTG", "switch fluorescence ratio": 1.03}
{"sequence": "GATCCAAAGA", "switch fluorescence ratio": 1.07}
{"sequence": "GATCCACCCC", "switch fluorescence ratio": 1.12}
{"sequence": "GATCCAGGTT", "switch fluorescence ratio": 1.13}
{"sequence": "GATCCGCGTG", "switch fluorescence ratio": 1.01}
{"sequence": "GATCCTATAG", "switch fluorescence ratio": 1}
{"sequence": "GATCCTATTA", "switch fluorescence ratio": 1}
{"sequence": "GATCCTGAGA", "switch fluorescence ratio": 0.958}
{"sequence": "GATCGCTAAT", "switch fluorescence ratio": 1.42}
{"sequence": "GATCGGCGGG", "switch fluorescence ratio": 1.02}
{"sequence": "GATCGGGAA", "switch fluorescence ratio": 0.962}
{"sequence": "GATCGGGGTC", "switch fluorescence ratio": 1}
{"sequence": "GATCGGTCCA", "switch fluorescence ratio": 0.964}
{"sequence": "GATCGTGTCT", "switch fluorescence ratio": 1.02}
{"sequence": "GATCTCCGTT", "switch fluorescence ratio": 1.33}
{"sequence": "GATCTCCTGC", "switch fluorescence ratio": 1.12}
{"sequence": "GATCTGGATC", "switch fluorescence ratio": 1.01}
{"sequence": "GATCTGTGCC", "switch fluorescence ratio": 0.939}
{"sequence": "GATCTTAAGA", "switch fluorescence ratio": 1.01}
{"sequence": "GATCTTTTGT", "switch fluorescence ratio": 0.955}
{"sequence": "GATGAAACGC", "switch fluorescence ratio": 0.999}
{"sequence": "GATGAAAGTT", "switch fluorescence ratio": 1.02}
{"sequence": "GATGAACATT", "switch fluorescence ratio": 1}
{"sequence": "GATGAACTGG", "switch fluorescence ratio": 0.96}
